# Paper PMC6919601, “Identification of Plasmodium dipeptidyl aminopeptidase allosteric inhibitors by high throughput screening” (PLoS ONE, 2019)
# Among all 110,000 compounds or so, about 230 (0.21%) showed an effect of 50% or more. The list shows a part of the results.
# Target: DPAP1 (Plasmodium falciparum, UniProt Q8IIJ9)
# Assay: primary screen, percent inhibition; read by cleavage of a fluorogenic dipeptide substrate; higher = more effect of the substance
# Parameters: species or system P. falciparum D10 trophozoite lysates; single well
# 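Note: 30 min substrate incubation versus DMSO and 10 µM JCP410 controls.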
# DPAP1, sequence (Q8IIJ9 whole entry, looked up): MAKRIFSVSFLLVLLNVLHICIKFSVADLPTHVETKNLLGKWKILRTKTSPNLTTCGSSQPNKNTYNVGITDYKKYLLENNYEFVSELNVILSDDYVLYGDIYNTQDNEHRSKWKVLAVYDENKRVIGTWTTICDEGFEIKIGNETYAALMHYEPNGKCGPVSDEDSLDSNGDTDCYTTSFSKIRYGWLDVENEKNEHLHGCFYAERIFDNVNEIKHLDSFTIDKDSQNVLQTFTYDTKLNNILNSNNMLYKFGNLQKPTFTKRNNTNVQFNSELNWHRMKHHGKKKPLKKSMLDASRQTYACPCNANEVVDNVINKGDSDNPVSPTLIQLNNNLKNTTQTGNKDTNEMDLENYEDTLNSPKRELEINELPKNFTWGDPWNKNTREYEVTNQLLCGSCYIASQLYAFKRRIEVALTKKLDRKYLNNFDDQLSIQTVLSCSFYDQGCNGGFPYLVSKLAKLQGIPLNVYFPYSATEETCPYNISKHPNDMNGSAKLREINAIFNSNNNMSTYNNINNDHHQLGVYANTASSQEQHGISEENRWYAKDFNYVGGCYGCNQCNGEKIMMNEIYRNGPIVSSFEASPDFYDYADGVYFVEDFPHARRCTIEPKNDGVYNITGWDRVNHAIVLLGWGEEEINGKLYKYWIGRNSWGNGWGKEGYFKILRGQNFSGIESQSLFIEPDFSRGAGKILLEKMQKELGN
row,SMILES,% Inhibition @ 10 uM
1,CCC(C)NC(=O)C1CCCN(S(=O)(=O)c2ccc(C)cc2)C1 (stereo not shown),2.05%
2,Cc1nn(CC(=O)NC2CCCc3ccccc32)c(=O)c2cc3sccc3n12 (stereo not shown),0.137%
3,Cc1c(C)n(C)c2ccc(C(=O)NCCN3CCC(Cc4ccccc4)CC3)cc12,0.747%
4,COc1ccccc1OCC(=O)Nc1cc(Cl)c(Cl)cc1Cl,-3.33%
5,CC1CCCN(S(=O)(=O)c2csc(C(N)=O)c2)C1 (stereo not shown),3.28%
6,Cc1cccn2c(=O)c3cc(C(=O)N(C)C4CCCCC4)n(C)c3nc12,2.03%
7,O=C(C(Cc1ccccc1)n1cccc1)N1CCN(C2CCCCC2)CC1 (stereo not shown),2.6%
8,COc1cccc(-c2nc(CS(=O)(=O)CC(=O)N3CCOCC3)c(C)o2)c1,-1.89%
9,O=C(COCc1cc(-c2ccc(F)cc2)on1)NCCCc1ccccc1,-2.41%
10,COc1ccc(CN2C(=O)c3cccnc3C2=O)cc1S(=O)(=O)NCCC1=CCCCC1,-2.54%
11,Cc1ccc(Cn2c(C)c3cnn(CC(=O)NCCCN(C)C4CCCCC4)c(=O)c3c2C)cc1,-2.17%
12,COc1ccc(N(C(=O)c2ccccc2O)C(C)C2CC2)cc1 (stereo not shown),1.21%
13,CCc1c(O)cc2n(c1=O)-c1ccccc1C2(C)C,0.658%
14,CCOC(=O)/C(C#N)=C/c1c(Oc2cc(C)cc(C)c2)nc2c(C)cccn2c1=O,-1.65%
15,CCSc1ccc(NC(=O)c2cccnc2)cc1,0.992%
16,Cc1ccc(SCC(=O)Nc2ccccc2Cl)cc1,1.35%
17,Cc1nc(N)sc1-c1csc(Nc2ncccn2)n1,4.22%
18,Cc1ccc(C)c(NC(=O)CN(C2CCCCC2)S(C)(=O)=O)c1,-6.05%
19,CNC(=S)N(Cc1ccccc1)CC1CC=CCC1 (stereo not shown),0.343%
20,Clc1cccc(CN2CCN(C/C=C/c3ccccc3)CC2)c1,2.33%
21,CCN1C(=O)/C(=C\c2ccc(C(=O)O)cc2)S/C1=N\c1ccccc1,0.793%
22,C/C(=C\c1ccccc1)CN1CC(C)OC(C)C1 (stereo not shown),-6%
23,Cc1c(=O)n(OCc2ccccc2)c2ccccc2[n+]1[O-],4.11%
24,CCCCN(C)C(=O)C1CCN(c2nn3cc(-c4ccc(C)cc4)nc3s2)CC1,2.97%
25,COc1ccc(C2(CNC(=O)c3ccc(Br)cc3)CCOCC2)cc1,3.15%

row,SMILES,% Inhibition @ 10 uM
1,CN(Cc1ccccc1)C(=O)CN(c1ccc(F)cc1)S(=O)(=O)c1ccc2c(c1)OCCO2,-9.2%
2,COc1ccc(CNC(=O)CCC(=O)Nc2nc(-c3cc4ccccc4oc3=O)cs2)cc1,0.569%
3,C=CCN1C(=O)C2(Nc3ccccc3C(=O)N2c2ccccc2)c2ccccc21 (stereo not shown),-1.28%
4,COc1ccc(NC(=O)c2cc(C#N)c3ccccn23)cc1,-4.76%
5,Cc1ccc(N2C(=O)NC(=O)/C(=C/Nc3cccc(O)c3)C2=O)cc1,-2.46%
6,COc1ccc(C2CC3=Nc4ccccc4N(C(=O)C4CC4)C(c4cccnc4)C3=C(O)C2)cc1OC (stereo not shown),-2.16%
7,CN(C=O)CP(=O)(O)CN1CCOCC1,2.09%
8,CCc1ccc(S(=O)(=O)Nc2ccc3oc(=O)sc3c2)cc1,-10.2%
9,Cn1c(CNc2ccccc2)cc(=O)n(C)c1=O,6.6%
10,CC(=O)C1=C(O)C(=O)N(c2ccccn2)C1c1ccc(C)cc1 (stereo not shown),0.161%
11,COc1ccc(-c2noc(CC(=O)NCCN3CCOCC3)n2)cc1,-0.256%
12,COc1ccc(C(=O)Nc2ccc(C(C)C)cc2)cc1,-1.46%
13,CC(C)c1ccc(C(=O)Nc2nnc(S(=O)(=O)N3CCOCC3)s2)cc1,-1.72%
14,CCc1cc2c(cc3c(=O)n(CC(=O)NCc4cccnc4)ncn32)s1,1.68%
15,Cc1cccc(NS(=O)(=O)c2ccc3ccccc3c2)c1C,5.29%
16,COc1ccc2c(c1OC)C(=O)N1C(C(=O)O)Cc3c([nH]c4ccccc34)C21 (stereo not shown),1.29%
17,O=C(Nc1nc(-c2ccc(-c3ccccc3)cc2)cs1)C1CC1,6.52%
18,CCCNC(=O)c1c(NC(=O)c2ccc(C)cc2)sc2c1CCC(C)C2 (stereo not shown),0.343%
19,O=C(Nc1nnc(S(=O)(=O)N2CCCCCC2)s1)c1cccc2ccccc12,4.86%
20,CCOC(=O)C1=C(C)N=C2SCC(=O)N2C1c1ccc(Cl)cc1 (stereo not shown),-1.15%
21,CCOC(=O)c1oc2ccc(C=O)c(Cl)c2c1C,-4.02%
22,CCN1CCN(c2nc3ccccc3n3cnnc23)CC1,-0.692%
23,Cn1c(CNC(c2ccccc2)c2ccccc2)nc2ccccc21,3.32%
24,CSc1ccccc1Sc1cc(C(=O)NCC2CCCO2)c2ccccc2n1 (stereo not shown),10.6%
25,O=C1NC(=O)C(=C/C=C/c2ccco2)C(=O)N1,1.29%

row,SMILES,% Inhibition @ 10 uM
1,CS(=O)(=O)N(CC(=O)Nc1cccc(Cl)c1)c1ccc(Cl)cc1,1.92%
2,Cc1ccc(CNC(=O)c2cncc(NS(=O)(=O)c3ccc(Cl)cc3)c2)cc1,5.38%
3,O=C(O)c1c(CNCc2cccc(Br)c2)c2ccccc2n1Cc1ccccc1F,-3.46%
4,Cc1ccc(-c2c(NCc3ccccc3Cl)c(=O)c2=O)cc1,-0.825%
5,Cc1ccc(-n2nnnc2SCC(=O)NCc2cccc(C(=O)O)c2)c(C)c1,-0.0735%
6,CCOC(=O)c1nnc(-c2ccc(CN3CCc4ccccc4C3)cc2)o1,-0.0709%
7,CC12CN3CC(c4ccccc4)(CN(C1)C3C(O)C(O)C(O)CO)C2=O (stereo not shown),2.31%
8,CSc1nc(-c2ccccc2)nn1S(=O)(=O)c1ccc(C)cc1,0.722%
9,COc1ccc(CN2CCN(Cc3cc(OC)c(OC)cc3OC)CC2)cc1,3.86%
10,COc1ccc(C=C2C(=O)OC3(CCCCC3)OC2=O)cc1O,-5.08%
11,CCc1cccc(NC(=O)CCCC(=O)O)c1,-0.68%
12,COc1ccc(O)c(CN2C[C@@H]3C[C@H](C2)c2cccc(=O)n2C3)c1,3.15%
13,COc1ccc(OC)c(C2C(C#N)=C(N)Oc3[nH]nc(-c4cccc5ccccc45)c32)c1 (stereo not shown),-4.65%
14,Cc1ccc(N2C(=O)NC(=O)/C(=C/Nc3cc(Cl)ccc3O)C2=O)cc1,-6.35%
15,Brc1ccc(CN2CCc3c([nH]c4ccccc34)C2)o1,-0.473%
16,Cc1ccc(-c2nc(-c3cc4ccccc4oc3=O)sc2C)cc1,-5.5%
17,CCN1N=C(c2ccccc2)C(c2ccco2)NC1=O (stereo not shown),12.2%
18,COc1ccc(C(=O)c2c(/C=C(\C)N(C)C)oc3ccc(OC)cc23)cc1,1.34%
19,O=C(c1ccccc1C(=O)N1CCN(Cc2ccccc2)CC1)N1CCN(Cc2ccccc2)CC1,5.42%
20,O=C(NCCN1CCOCC1)c1ccc(CS(=O)(=O)Cc2ccccc2F)o1,3.93%
21,CN1CCN(CC(O)c2ccc(C3CCCC3)cc2)CC1 (stereo not shown),-5.1%
22,COc1cc(C2C3=C(CC(C)(C)CC3=O)OC3=C2C(=O)CC(C)(C)C3)ccc1OCC(=O)O,-1.26%
23,CSCc1nnc(NC(=O)c2ccc(S(=O)(=O)N3CCCCC3C)cc2)o1 (stereo not shown),-8.38%
24,COc1ccc(-n2ncc3c2ncn2nc(COc4c(C)cccc4C)nc32)cc1,-4.64%
25,Brc1ccc(CNCc2cccnc2)cc1,2.46%

row,SMILES,% Inhibition @ 10 uM
1,O=C(Nc1cccc2c(NC(=O)c3ccco3)cccc12)c1ccco1,-0.759%
2,COc1ccc2c(CNCCc3cccs3)c(C(=O)O)n(Cc3ccccc3F)c2c1,1.17%
3,Cc1nnc(N2CCCC2)c2c1nnn2Cc1ccc(F)cc1,-1.71%
4,CCN(CC)C(=O)Cn1c(=O)cc(C(F)(F)F)c2c(C)nn(C)c21,-5.33%
5,Cc1nc2cc(Cc3ccc4[nH]c(C)nc4c3)ccc2[nH]1,5.5%
6,COc1ccc(-n2c(C)ccc2C)cc1N,-8.85%
7,O=C(CN1C(=O)S/C(=C\c2ccc3c(c2)OCO3)C1=O)c1ccccc1,6.63%
8,COc1ccccc1CNC(=O)Cn1ncc2c3ccccc3n(Cc3cccc(Cl)c3)c2c1=O,-3.35%
9,O=C(COc1ccc(NC2=NS(=O)(=O)c3ccccc32)cc1)N1CCOCC1,0.475%
10,COc1ccc(CCNC(=O)CN(C2CCCCC2)S(C)(=O)=O)cc1,2.13%
11,CC(=O)N1CCC(N2CCCN(C)CC2)CC1,0.273%
12,CC(/C=c1\sc2nc3ccccc3n2c1=O)=C\c1ccco1,2.03%
13,CC(=O)Nc1ccc(NC(=O)c2sc3ccccc3c2Cl)cc1,-4.76%
14,C=Cc1ccc(Cn2c(C(=O)O)c(CNCCc3ccc(C)cc3)c3ccccc32)cc1,-5.05%
15,CCN(CC)c1ccc(/C=C2/NC(=O)N(Cc3cccc(C)c3)C2=O)c(OC)c1,-1.98%
16,CC(C)CCNC(=O)C1CCN(c2ncnc3c2nc2n3CCCCC2)CC1,5.49%
17,NC(=O)c1c(NC(=O)c2cc(F)c(F)cc2Cl)sc2c1CCCC2,4.02%
18,COc1ccc2oc(C(O)c3c(C)oc4ccc(OC)cc34)cc2c1 (stereo not shown),-10.4%
19,CCOc1ccc(C2=CSC3=NCCN23)cc1,4%
20,Cc1nc(-c2cccc(Cl)c2)cs1,-5.98%
21,O=C(O)C1CCN(C(=O)NC2CCCCC2)CC1,-5.92%
22,Cc1ccc2nc(N(CCCN(C)C)C(=O)C3CCCCC3)sc2c1,-8.09%
23,CC(=O)c1cccc(NC(=O)COc2cc(C)ccc2C)c1,-2.8%
24,COc1ccccc1NC(=O)C(C)N1C(=O)c2ccccc2C1=O (stereo not shown),-2.59%
25,O=C(O)C1CCCCC1C(=O)N1CCN(C(c2ccccc2)c2ccccc2)CC1 (stereo not shown),2.32%
